# Laboratory results reported in PubChem BioAssay AID485281 (National Center for Advancing Translational Sciences (NCATS), 2010).
# In all, about 350,000 compounds went through this assay and about 260 (0.074%) were called active. The shares of active, inactive and inconclusive entries below differ from those in the screen. Calls come from the whole dose curve; as a rule, active = well fitted inhibition curve with a large enough effect; inconclusive = small, poorly fitted or top-dose-only effect; inactive = no such curve, though single readings can be large or run the other way. Where the call is inconclusive, the potency comes from a doubtful curve fit.
# Biological target: Ferritin light chain (Equus caballus) (UniProt P02791)
# Assay: qHTS Assay for Identification of Novel General Anesthetics; note: nearly all actives have a fitted effect of over 20% in size
# Settings: apoferritin/1-aminoanthracene competitive binding, fluorescence; activity change, negative = displacement: at 77.5 µM (top of the series)
# Procedure, shortened: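 Horse-spleen apoferritin (10 uM) in 50% saturated 1-aminoanthracene in PBS was incubated 10 min at room temperature with compound. Fluorescence (ex 380, em 535 nm) was normalized to free and bound 1-AMA, with concentration-response fitted by a four-parameter Hill equation.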
# % is set by controls: 0 for no effect and ±100 for the full control effect; potency is the fitted concentration of half-maximal effect; tags give direction and shape of the fitted curve.
# Chain of UniProt P02791 (P02791 whole entry, looked up): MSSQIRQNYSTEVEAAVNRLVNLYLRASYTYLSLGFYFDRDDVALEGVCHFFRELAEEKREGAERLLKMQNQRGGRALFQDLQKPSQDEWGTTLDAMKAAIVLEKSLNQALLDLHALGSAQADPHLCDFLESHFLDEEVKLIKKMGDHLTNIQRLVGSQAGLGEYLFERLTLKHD
SMILES,Potency,"activity change, negative = displacement"
CCOc1ccc(N2C(=O)/C(=C\c3ccc(OC)c(O)c3)S(=O)(=O)C2c2cccc([N+](=O)[O-])c2)cc1 (stereo not drawn),"inconclusive: 15.8 µM [inhibitor, partial curve]",–
Cc1ccc(Nc2nnc(-c3ccc(C)c(S(=O)(=O)N4CCN(C)CC4)c3)c3ccccc23)c(C)c1,"inconclusive: 2.82 µM [inhibitor, partial curve, poor fit]",–
CC(C)N(Cc1ccccc1)C(=O)COC(=O)/C=C/c1cnc2ccccc2n1,"inconclusive: 15.8 µM [inhibitor, partial curve]",–
Cc1nn(Cc2ccc(Cl)cc2)c2sc(C(=O)OCC(N)=O)cc12,"inconclusive: 8.91 µM [inhibitor, partial curve]",–
CC(C)OC(=O)CSc1nnnn1-c1ccc2c(c1)OCCO2,–,inactive: -9.63%
OCCN1CCN(C(=S)Nc2cccc(C(F)(F)F)c2)CC1,–,inactive: -7.98%
Cc1ccc(CNC(=O)C2CCC(CNS(=O)(=O)c3cccc4cccnc34)CC2)cc1 (stereo not drawn),"inconclusive: 10 µM [inhibitor, partial curve]",–
CCCCCCNS(=O)(=O)c1ccc(OC)c(OC)c1,"inconclusive: 11.2 µM [inhibitor, partial curve]",–
Cc1ccc(CNC(=O)c2cc3c(=O)n(C)c4ccccc4c3n2C)cc1,–,inactive: 0.966%
CC(=O)c1cnc2c(-c3ccccc3)c(C(F)(F)F)nn2c1C,"inconclusive: 31.6 µM [inhibitor, single point]",–
CCOC(=O)N1CCN(C(=O)c2ccc3c(=O)n(Cc4ccccc4)c(=S)[nH]c3c2)CC1,"inconclusive: 12.6 µM [inhibitor, partial curve]",–
CCN(CC)S(=O)(=O)c1ccc(/C=C/C(=O)Nc2ccccc2N2CCOCC2)cc1,"inconclusive: 22.4 µM [inhibitor, partial curve]",–
Cc1sc2ncn(CC(=O)Nc3ccccc3F)c(=O)c2c1-c1ccccc1,"inconclusive: 14.1 µM [inhibitor, partial curve]",–
C[C@@H](C(=O)NCc1nc2ccccc2[nH]1)[C@@H]1C[C@@]1(C)[C@@H](NC(=O)OCc1ccccc1)c1ccccc1,–,inactive: -20.8%
O=C(COC(=O)c1n[nH]c2ccccc12)NC(=O)NC12CC3CC(CC(C3)C1)C2,"inconclusive: 11.2 µM [inhibitor, partial curve]",–
Cc1ccc(C(=O)N(Cc2ccc3c(c2)OCO3)Cc2nc3ccccc3c(=O)[nH]2)cc1,"inconclusive: 20 µM [inhibitor, partial curve]",–
COC(=O)c1c(SCc2cccc3ccccc23)nc(=O)[nH]c1C,"inconclusive: 56.2 µM [inhibitor, single point]",–
c1ccc(Oc2ccc3ccccc3n2)cc1,"inconclusive: 28.2 µM [inhibitor, partial curve]",–
CCOC(=O)CSc1nnc2c(n1)C1(C)CCC2C1(C)C (stereo not drawn),"inconclusive: 35.5 µM [inhibitor, partial curve]",–
CSc1nsc(N/N=C/c2ccccc2)c1C#N,–,inactive: -8.43%
Cc1ccc(-c2csc(N(CCO)CCCn3c(C(F)(F)F)nc4ccccc43)n2)cc1,"inconclusive: 20 µM [inhibitor, partial curve]",–
CN(Cc1ccc(Br)cc1)CC(O)COc1cccc(Br)c1 (stereo not drawn),"inconclusive: 50.1 µM [inhibitor, single point]",–

SMILES,Potency,"activity change, negative = displacement"
CC(C)(C)n1nnnc1SCC(=O)Nc1nn(-c2ccccc2)nc1C(N)=O,"inconclusive: 3.55 µM [inhibitor, full curve]",–
c1ccc(Oc2ccc(-c3ccnc4ncnn34)cc2)cc1,"inconclusive: 44.7 µM [inhibitor, partial curve, poor fit]",–
CC(C)(C)N1C(=O)c2ccc(C(=O)Nc3nccs3)cc2C1=O,"inconclusive: 35.5 µM [inhibitor, partial curve]",–
CCSc1nnc(Nc2ccccc2)s1,"inconclusive: 39.8 µM [inhibitor, partial curve]",–
O=C(Nc1nnc(SCC(=O)N2CCCc3ccccc32)s1)c1cccc2ccccc12,–,inactive: -9.42%
CCOC(=O)c1c(C=O)c(C)n(Cc2ccccc2)c1C,"inconclusive: 31.6 µM [inhibitor, partial curve]",–
COc1ccccc1NC(=O)C1=C(C)N(c2ccccc2)C(=S)NC1c1cccc(C(F)(F)F)c1 (stereo not drawn),"inconclusive: 3.16 µM [inhibitor, full curve]",–
Cc1ccc(C(C)C)c(OCCNC(=O)c2cncc(Br)c2)c1,"inconclusive: 28.2 µM [inhibitor, partial curve]",–
NC(=O)CSc1nnc2ccc(-c3ccc(Cl)cc3)nn12,–,inactive: -11%
C=CCNCCCOc1ccc(C(C)(C)c2ccccc2)cc1,"inconclusive: 15.8 µM [inhibitor, partial curve]",–
COC(=O)c1ccccc1Oc1c(F)c(F)nc(N2CCOCC2)c1F,"inconclusive: 25.1 µM [inhibitor, partial curve]",–
CCOc1ccc(N(CC(=O)NC(C)(C)C)C(=O)c2ccco2)cc1,"inconclusive: 35.5 µM [inhibitor, partial curve]",–
COc1ccccc1C1CC(c2cccs2)=Nc2ccccc2S1 (stereo not drawn),–,inactive: -7.77%
COc1cc(Cl)ccc1OCc1cc(C(=O)NCC(C)c2ccccc2)no1 (stereo not drawn),"inconclusive: 44.7 µM [inhibitor, partial curve]",–
O=C(CSCc1ccc(Cl)cc1)N1CCCCC1,"inconclusive: 50.1 µM [inhibitor, partial curve, poor fit]",–
COC(=O)c1c(C)oc(C)c1S(=O)(=O)N1CCCCC1,–,inactive: 1.17%
CCc1ccc2[nH]c3nc(N/N=C/c4ccc(O)cc4O)nnc3c2c1,"inconclusive: 44.7 µM [inhibitor, single point]",–
Cc1ccc(N2CC(O)=C(c3ccccc3)C2=N)cc1,–,inactive: -7.91%
CCN(CC)C(=O)COC(=O)c1cc(-c2ccc(OC)cc2)nc2ccccc12,"inconclusive: 35.5 µM [inhibitor, partial curve]",–
Cc1cc(C)n2nc(SCC(=O)N(C(C)C)C(C)C)nc2n1,"inconclusive: 28.2 µM [inhibitor, single point]",–
CCN1CCn2c3c(c4cc(Cl)ccc42)CCCC31 (stereo not drawn),–,inactive: -6.55%
